{"source": "patent US6699677", "about": "(CHEMOCENTRYX, dated 2004)", "biological_target": "T1, CCR6 on transfected mouse myeloma NSO cells (UniProt P51684 1-374, limits assumed)", "T1 construct": "whole, on cells; also called CCR6-NSO", "T1 sequence (looked up)": "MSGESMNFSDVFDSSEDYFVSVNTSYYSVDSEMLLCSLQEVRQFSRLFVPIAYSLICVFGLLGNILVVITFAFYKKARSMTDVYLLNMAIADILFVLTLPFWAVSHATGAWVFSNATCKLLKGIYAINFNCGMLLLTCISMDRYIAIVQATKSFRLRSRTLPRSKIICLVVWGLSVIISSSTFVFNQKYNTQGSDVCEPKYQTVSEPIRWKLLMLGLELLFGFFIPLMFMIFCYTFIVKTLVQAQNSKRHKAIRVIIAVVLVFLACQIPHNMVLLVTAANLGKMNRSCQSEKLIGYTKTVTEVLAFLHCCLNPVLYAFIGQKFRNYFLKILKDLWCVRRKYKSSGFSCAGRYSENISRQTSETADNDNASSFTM", "assay": "adhesion of receptor-expressing NSO cells to immobilized stalkokine", "data": [{"binder": "MIP3a-FRAC (MIP3alpha stalkokine) (ligand, not shown: small tags and cut ends, mature; also called MIP3a (stalkokine form)) not shown", "values": [{"measurement": "binding result", "result": "binds"}]}]}
